# Assay results: the supplement of paper PMC8728848
# The list shows a part of the results.
# How the values were obtained:
# Test in all cases: glycan array binding signal (z-score within array); higher = stronger binding
# Conditions in all cases: glycan notation: IUPAC condensed, linker removed
# [1] = target: Gal(b1-4)GlcNAc(b1-2)[Gal(b1-4)GlcNAc(b1-4)]Man(a1-3)[Gal(b1-4)GlcNAc(b1-2)[Gal(b1-4)GlcNAc(b1-6)]Man(a1-6)]Man(b1-4)GlcNAc(b1-4)GlcNAc
# Summary of the method: (§1)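 Columns mapping to the same glycan were averaged after glycan names were converted to IUPAC-condensed notation. The data come from 3228 arrays in the Consortium for Functional Glycomics database, limited to those with an available protein sequence. Binding is reported as a within-array Z-score averaged across arrays of one protein sequence and across linkers.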
# [2] = target: Gal(b1-4)GlcNAc(b1-2)[Gal(b1-4)GlcNAc(b1-4)]Man(a1-3)[GlcNAc(b1-4)][Gal(b1-4)GlcNAc(b1-2)Man(a1-6)]Man(b1-4)GlcNAc(b1-4)GlcNAc
# Summary of the method: as §1
# [3] = target: Gal(b1-4)GlcNAc(b1-2)[Gal(b1-4)GlcNAc(b1-4)]Man(a1-3)[GlcNAc(b1-4)][Gal(b1-4)GlcNAc(b1-2)[Gal(b1-4)GlcNAc(b1-6)]Man(a1-6)]Man(b1-4)GlcNAc(b1-4)GlcNAc
# Summary of the method: as §1
# [4] = target: Gal(b1-4)GlcNAc(b1-2)[Gal(b1-4)GlcNAc(b1-4)]Man(a1-3)[GlcNAc(b1-4)][Gal(b1-4)GlcNAc(b1-2)[Gal(b1-4)GlcNAc(b1-6)]Man(a1-6)]Man(b1-4)GlcNAc(b1-4)[Fuc(a1-6)]GlcNAc
# Summary of the method: as §1
# [5] = target: Gal(b1-4)GlcNAc(b1-2)[Gal(b1-4)GlcNAc(b1-6)]Man(a1-6)[Gal(b1-4)GlcNAc(b1-2)Man(a1-3)]Man(b1-4)GlcNAc(b1-4)GlcNAc
# Summary of the method: as §1
# [6] = target: Gal(b1-4)GlcNAc(b1-2)[Gal(b1-4)GlcNAc(b1-6)]Man(a1-6)[Gal(b1-4)GlcNAc(b1-2)Man(a1-3)]Man(b1-4)GlcNAc(b1-4)[Fuc(a1-6)]GlcNAc
# Summary of the method: as §1
# [7] = target: Gal(b1-4)GlcNAc(b1-2)[Gal(b1-4)GlcNAc(b1-6)]Man(a1-6)[GlcNAc(b1-4)][Gal(b1-4)GlcNAc(b1-2)Man(a1-3)]Man(b1-4)GlcNAc(b1-4)GlcNAc
# Summary of the method: as §1
# [8] = target: Gal(b1-4)GlcNAc(b1-3)Gal(b1-3)GlcNAc
# Summary of the method: as §1
# [9] = target: Gal(b1-4)GlcNAc(b1-3)Gal(b1-4)Glc
# Summary of the method: as §1
# [10] = target: Gal(b1-4)GlcNAc(b1-3)Gal(b1-4)GlcNAc
# Summary of the method: as §1
# [11] = target: Gal(b1-4)GlcNAc(b1-3)Gal(b1-4)GlcNAc(b1-3)Gal(b1-4)GlcNAc
# Summary of the method: as §1
# [12] = target: Gal(b1-4)GlcNAc(b1-3)Gal(b1-4)[Fuc(a1-3)GlcNAc(b1-6)]Gal(b1-4)Glc
# Summary of the method: as §1
# [13] = target: Gal(b1-4)GlcNAc(b1-3)Gal(b1-4)[Fuc(a1-3)]GlcNAc(b1-3)Gal(b1-4)[Fuc(a1-3)]GlcNAc
# Summary of the method: as §1
# [14] = target: Gal(b1-4)GlcNAc(b1-3)GalNAc
# Summary of the method: as §1
# [15] = target: Gal(b1-4)GlcNAc(b1-3)[Gal(b1-4)GlcNAc(b1-6)]Gal(b1-4)GlcNAc
# Summary of the method: as §1
# [16] = target: Gal(b1-4)GlcNAc(b1-3)[Gal(b1-4)GlcNAc(b1-6)]GalNAc
# Summary of the method: as §1
# [17] = target: Gal(b1-4)GlcNAc(b1-3)[GlcNAc(b1-6)]Gal(b1-4)GlcNAc
# Summary of the method: as §1
# [18] = target: Gal(b1-4)GlcNAc(b1-6)Gal(b1-4)GlcNAc
# Summary of the method: as §1
# [19] = target: Gal(b1-4)GlcNAc(b1-6)GalNAc
# Summary of the method: as §1
# [20] = target: Gal(b1-4)GlcNAc(b1-6)[Gal(b1-3)]GalNAc
# Summary of the method: as §1
# [21] = target: Gal(b1-4)GlcNAc6P
# Summary of the method: as §1
# [22] = target: Gal(b1-6)Gal
# Summary of the method: as §1
# [23] = target: Gal3S(b1-3)GalNAc
# Summary of the method: as §1
# [24] = target: Gal3S(b1-3)GlcNAc
# Summary of the method: as §1
# [25] = target: Gal3S(b1-3)[Fuc(a1-4)]GlcNAc
# Summary of the method: as §1
# [26] = target: Gal3S(b1-4)Glc
# Summary of the method: as §1
# [27] = target: Gal3S(b1-4)Glc6S
# Summary of the method: as §1
# [28] = target: Gal3S(b1-4)GlcNAc
# Summary of the method: as §1
# [29] = target: Gal3S(b1-4)GlcNAc6S
# Summary of the method: as §1
# [30] = target: Gal3S(b1-4)[Fuc(a1-3)]Glc
# Summary of the method: as §1
# [31] = target: Gal3S(b1-4)[Fuc(a1-3)]Glc6S
# Summary of the method: as §1
# [32] = target: Gal3S4S(b1-4)GlcNAc
# Summary of the method: as §1
# [33] = target: Gal3S6S(b1-4)GlcNAc
# Summary of the method: as §1
# [34] = target: Gal3S6S(b1-4)GlcNAc6S
# Summary of the method: as §1
# [35] = target: Gal4S(b1-4)GlcNAc
# Summary of the method: as §1
# [36] = target: Gal4S6S(b1-4)GlcNAc
# Summary of the method: as §1
# [37] = target: Gal6P(b1-4)GlcNAc
# Summary of the method: as §1
binder,measurement,setting,value
"Gal 4 (Homo sapiens), Q8K419 (protein) MAYVPAPGYQPTYNPTLPYKRPIPGGLSVGMSVYIQGMAKENMRRFHVNFAVGQDDGADVAFHFNPRFDGWDKVVFNTMQSGQWGKEEKKKSMPFQKGKHFELVFMVMPEHYKVVVNGNSFYEYGHRLPVQMVTHLQVDGDLELQSINFLGGQPAAAPYPGAMTIPAYPAGSPGYNPPQMNTLPVMTGPPVFNPRVPYVGALQGGLTVRRTIIIKGYVLPTARNFVINFKVGSSGDIALHLNPRIGDSVVRNSFMNGSWGAEERKVAYNPFGPGQFFDLSIRCGMDRFKVFANGQHLFDFSHRFQAFQMVDTLEINGDITLSYVQI",glycan array binding signal (z-score),[1],-0.189
same,glycan array binding signal (z-score),[2],-0.199
same,glycan array binding signal (z-score),[3],-0.215
same,glycan array binding signal (z-score),[4],-0.204
same,glycan array binding signal (z-score),[5],-0.211
same,glycan array binding signal (z-score),[6],-0.192
same,glycan array binding signal (z-score),[7],-0.214
same,glycan array binding signal (z-score),[8],0.133
same,glycan array binding signal (z-score),[9],1.11
same,glycan array binding signal (z-score),[10],0.008
same,glycan array binding signal (z-score),[11],-0.088
same,glycan array binding signal (z-score),[12],-0.185
same,glycan array binding signal (z-score),[13],-0.196
same,glycan array binding signal (z-score),[14],-0.176
same,glycan array binding signal (z-score),[15],-0.187
same,glycan array binding signal (z-score),[16],-0.176
same,glycan array binding signal (z-score),[17],-0.184
same,glycan array binding signal (z-score),[18],-0.175
same,glycan array binding signal (z-score),[19],-0.191
same,glycan array binding signal (z-score),[20],-0.059
same,glycan array binding signal (z-score),[21],-0.2
same,glycan array binding signal (z-score),[22],-0.203
same,glycan array binding signal (z-score),[23],1.15
same,glycan array binding signal (z-score),[24],0.315
same,glycan array binding signal (z-score),[25],-0.204
same,glycan array binding signal (z-score),[26],0.086
same,glycan array binding signal (z-score),[27],0.631
same,glycan array binding signal (z-score),[28],-0.136
same,glycan array binding signal (z-score),[29],0.018
same,glycan array binding signal (z-score),[30],-0.203
same,glycan array binding signal (z-score),[31],-0.189
same,glycan array binding signal (z-score),[32],-0.211
same,glycan array binding signal (z-score),[33],-0.205
same,glycan array binding signal (z-score),[34],-0.199
same,glycan array binding signal (z-score),[35],-0.209
same,glycan array binding signal (z-score),[36],-0.199
same,glycan array binding signal (z-score),[37],-0.211
